According to paper PMC10957913, “GAS41 modulates ferroptosis by anchoring NRF2 on chromatin” (Nature Communications, 2024):
These are yes or no findings as the source states them, for the method shown. Binding seen in cells or lysates may run through a third protein. Some binding calls cover weakened binding; strength is not graded here. For some assays here: Tags and fused reporters may be left off the sequences shown. One block for each molecule: values may come before it.

Amino acid sequences for entries named in this document (tags omitted). A change or cut given only in a name is not applied to a line headed by its entry. Residues count along the entry.
UniProt O95619: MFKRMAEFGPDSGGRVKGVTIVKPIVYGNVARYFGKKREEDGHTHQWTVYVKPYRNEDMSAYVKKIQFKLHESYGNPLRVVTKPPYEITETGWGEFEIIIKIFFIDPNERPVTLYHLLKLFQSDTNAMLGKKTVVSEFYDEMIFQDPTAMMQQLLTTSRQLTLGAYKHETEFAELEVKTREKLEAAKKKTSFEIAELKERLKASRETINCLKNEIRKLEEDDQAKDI
GAS41-amino acids 1-206 (YEATS domain, A box and partial coiled-coil motif): residues 1-206 of O95619
GAS41-amino acids 1-183 (YEATS domain and A box): residues 1-183 of O95619
GAS41-amino acids 1-160 (YEATS domain and A box): residues 1-160 of O95619
GAS41-amino acids 161-227 (complete coiled-coil motif): residues 161-227 of O95619
UniProt Q92793: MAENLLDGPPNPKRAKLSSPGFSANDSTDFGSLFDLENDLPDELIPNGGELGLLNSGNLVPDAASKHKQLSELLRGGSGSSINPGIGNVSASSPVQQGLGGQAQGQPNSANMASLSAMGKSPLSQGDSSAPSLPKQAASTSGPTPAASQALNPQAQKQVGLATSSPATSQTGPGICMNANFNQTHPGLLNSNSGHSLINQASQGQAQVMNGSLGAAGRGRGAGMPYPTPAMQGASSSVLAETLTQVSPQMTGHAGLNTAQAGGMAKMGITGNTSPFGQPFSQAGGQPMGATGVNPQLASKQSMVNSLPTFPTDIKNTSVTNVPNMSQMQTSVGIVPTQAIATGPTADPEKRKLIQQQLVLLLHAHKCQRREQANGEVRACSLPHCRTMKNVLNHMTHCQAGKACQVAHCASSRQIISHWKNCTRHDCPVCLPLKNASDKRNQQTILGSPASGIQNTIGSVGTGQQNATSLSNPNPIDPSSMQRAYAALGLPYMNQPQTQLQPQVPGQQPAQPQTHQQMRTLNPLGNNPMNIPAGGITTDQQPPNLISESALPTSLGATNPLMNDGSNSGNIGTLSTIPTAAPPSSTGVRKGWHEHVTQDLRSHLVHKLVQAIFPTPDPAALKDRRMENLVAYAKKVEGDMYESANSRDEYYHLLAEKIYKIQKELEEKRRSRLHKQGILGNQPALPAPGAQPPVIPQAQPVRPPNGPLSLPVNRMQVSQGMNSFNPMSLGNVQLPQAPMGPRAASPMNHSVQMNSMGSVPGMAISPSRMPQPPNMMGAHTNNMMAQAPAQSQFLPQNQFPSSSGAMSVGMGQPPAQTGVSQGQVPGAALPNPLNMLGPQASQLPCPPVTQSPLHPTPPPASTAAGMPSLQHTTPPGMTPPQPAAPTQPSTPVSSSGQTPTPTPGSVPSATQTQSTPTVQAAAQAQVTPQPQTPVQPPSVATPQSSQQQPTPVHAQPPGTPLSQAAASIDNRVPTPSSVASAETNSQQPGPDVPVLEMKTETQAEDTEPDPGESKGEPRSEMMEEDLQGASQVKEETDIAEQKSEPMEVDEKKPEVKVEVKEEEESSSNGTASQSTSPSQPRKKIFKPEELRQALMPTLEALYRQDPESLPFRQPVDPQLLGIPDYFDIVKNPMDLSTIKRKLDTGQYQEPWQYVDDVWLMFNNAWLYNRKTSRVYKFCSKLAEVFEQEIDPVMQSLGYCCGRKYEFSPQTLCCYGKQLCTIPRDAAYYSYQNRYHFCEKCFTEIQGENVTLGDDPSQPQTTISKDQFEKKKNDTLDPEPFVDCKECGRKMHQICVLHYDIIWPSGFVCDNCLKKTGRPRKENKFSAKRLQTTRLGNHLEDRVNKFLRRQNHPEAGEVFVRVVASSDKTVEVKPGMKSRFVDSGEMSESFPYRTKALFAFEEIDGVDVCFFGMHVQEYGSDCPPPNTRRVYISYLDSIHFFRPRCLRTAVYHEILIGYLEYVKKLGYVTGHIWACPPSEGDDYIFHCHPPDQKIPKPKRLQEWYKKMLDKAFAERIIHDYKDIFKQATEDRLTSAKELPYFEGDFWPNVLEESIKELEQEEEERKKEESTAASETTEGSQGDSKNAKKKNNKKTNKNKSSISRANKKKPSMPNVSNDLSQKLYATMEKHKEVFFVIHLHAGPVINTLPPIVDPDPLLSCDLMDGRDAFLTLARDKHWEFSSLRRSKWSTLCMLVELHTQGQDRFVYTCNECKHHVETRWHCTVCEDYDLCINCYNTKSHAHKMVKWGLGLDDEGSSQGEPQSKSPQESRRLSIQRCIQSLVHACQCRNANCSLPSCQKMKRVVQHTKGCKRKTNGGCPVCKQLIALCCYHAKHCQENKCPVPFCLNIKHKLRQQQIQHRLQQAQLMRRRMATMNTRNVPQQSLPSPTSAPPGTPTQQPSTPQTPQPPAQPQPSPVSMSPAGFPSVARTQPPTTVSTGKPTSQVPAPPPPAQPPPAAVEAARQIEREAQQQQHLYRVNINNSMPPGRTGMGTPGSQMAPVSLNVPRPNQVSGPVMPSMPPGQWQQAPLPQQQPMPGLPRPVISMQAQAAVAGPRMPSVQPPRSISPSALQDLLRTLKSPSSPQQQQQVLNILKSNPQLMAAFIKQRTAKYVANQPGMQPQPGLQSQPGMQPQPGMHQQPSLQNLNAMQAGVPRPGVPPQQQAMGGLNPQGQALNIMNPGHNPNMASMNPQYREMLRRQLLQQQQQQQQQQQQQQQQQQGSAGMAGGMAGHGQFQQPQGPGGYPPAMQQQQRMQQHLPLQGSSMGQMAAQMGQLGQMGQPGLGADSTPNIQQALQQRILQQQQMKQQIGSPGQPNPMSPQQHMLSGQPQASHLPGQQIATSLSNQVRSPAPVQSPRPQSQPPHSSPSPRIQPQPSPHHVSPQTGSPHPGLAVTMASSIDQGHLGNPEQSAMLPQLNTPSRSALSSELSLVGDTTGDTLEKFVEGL
UniProt Q92993: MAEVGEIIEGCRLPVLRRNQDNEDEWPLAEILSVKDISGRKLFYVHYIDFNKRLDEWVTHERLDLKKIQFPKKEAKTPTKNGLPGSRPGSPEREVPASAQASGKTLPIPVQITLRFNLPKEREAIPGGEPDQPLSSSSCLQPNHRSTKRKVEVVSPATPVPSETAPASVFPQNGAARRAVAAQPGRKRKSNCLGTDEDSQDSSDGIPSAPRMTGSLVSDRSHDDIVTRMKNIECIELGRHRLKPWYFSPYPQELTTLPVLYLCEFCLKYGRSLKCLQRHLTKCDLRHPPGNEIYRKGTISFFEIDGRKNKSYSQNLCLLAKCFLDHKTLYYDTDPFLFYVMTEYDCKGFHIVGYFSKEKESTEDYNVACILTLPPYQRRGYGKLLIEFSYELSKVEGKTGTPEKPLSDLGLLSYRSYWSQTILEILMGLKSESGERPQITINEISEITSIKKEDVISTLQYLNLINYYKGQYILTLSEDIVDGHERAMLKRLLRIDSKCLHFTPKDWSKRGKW
UniProt Q09472: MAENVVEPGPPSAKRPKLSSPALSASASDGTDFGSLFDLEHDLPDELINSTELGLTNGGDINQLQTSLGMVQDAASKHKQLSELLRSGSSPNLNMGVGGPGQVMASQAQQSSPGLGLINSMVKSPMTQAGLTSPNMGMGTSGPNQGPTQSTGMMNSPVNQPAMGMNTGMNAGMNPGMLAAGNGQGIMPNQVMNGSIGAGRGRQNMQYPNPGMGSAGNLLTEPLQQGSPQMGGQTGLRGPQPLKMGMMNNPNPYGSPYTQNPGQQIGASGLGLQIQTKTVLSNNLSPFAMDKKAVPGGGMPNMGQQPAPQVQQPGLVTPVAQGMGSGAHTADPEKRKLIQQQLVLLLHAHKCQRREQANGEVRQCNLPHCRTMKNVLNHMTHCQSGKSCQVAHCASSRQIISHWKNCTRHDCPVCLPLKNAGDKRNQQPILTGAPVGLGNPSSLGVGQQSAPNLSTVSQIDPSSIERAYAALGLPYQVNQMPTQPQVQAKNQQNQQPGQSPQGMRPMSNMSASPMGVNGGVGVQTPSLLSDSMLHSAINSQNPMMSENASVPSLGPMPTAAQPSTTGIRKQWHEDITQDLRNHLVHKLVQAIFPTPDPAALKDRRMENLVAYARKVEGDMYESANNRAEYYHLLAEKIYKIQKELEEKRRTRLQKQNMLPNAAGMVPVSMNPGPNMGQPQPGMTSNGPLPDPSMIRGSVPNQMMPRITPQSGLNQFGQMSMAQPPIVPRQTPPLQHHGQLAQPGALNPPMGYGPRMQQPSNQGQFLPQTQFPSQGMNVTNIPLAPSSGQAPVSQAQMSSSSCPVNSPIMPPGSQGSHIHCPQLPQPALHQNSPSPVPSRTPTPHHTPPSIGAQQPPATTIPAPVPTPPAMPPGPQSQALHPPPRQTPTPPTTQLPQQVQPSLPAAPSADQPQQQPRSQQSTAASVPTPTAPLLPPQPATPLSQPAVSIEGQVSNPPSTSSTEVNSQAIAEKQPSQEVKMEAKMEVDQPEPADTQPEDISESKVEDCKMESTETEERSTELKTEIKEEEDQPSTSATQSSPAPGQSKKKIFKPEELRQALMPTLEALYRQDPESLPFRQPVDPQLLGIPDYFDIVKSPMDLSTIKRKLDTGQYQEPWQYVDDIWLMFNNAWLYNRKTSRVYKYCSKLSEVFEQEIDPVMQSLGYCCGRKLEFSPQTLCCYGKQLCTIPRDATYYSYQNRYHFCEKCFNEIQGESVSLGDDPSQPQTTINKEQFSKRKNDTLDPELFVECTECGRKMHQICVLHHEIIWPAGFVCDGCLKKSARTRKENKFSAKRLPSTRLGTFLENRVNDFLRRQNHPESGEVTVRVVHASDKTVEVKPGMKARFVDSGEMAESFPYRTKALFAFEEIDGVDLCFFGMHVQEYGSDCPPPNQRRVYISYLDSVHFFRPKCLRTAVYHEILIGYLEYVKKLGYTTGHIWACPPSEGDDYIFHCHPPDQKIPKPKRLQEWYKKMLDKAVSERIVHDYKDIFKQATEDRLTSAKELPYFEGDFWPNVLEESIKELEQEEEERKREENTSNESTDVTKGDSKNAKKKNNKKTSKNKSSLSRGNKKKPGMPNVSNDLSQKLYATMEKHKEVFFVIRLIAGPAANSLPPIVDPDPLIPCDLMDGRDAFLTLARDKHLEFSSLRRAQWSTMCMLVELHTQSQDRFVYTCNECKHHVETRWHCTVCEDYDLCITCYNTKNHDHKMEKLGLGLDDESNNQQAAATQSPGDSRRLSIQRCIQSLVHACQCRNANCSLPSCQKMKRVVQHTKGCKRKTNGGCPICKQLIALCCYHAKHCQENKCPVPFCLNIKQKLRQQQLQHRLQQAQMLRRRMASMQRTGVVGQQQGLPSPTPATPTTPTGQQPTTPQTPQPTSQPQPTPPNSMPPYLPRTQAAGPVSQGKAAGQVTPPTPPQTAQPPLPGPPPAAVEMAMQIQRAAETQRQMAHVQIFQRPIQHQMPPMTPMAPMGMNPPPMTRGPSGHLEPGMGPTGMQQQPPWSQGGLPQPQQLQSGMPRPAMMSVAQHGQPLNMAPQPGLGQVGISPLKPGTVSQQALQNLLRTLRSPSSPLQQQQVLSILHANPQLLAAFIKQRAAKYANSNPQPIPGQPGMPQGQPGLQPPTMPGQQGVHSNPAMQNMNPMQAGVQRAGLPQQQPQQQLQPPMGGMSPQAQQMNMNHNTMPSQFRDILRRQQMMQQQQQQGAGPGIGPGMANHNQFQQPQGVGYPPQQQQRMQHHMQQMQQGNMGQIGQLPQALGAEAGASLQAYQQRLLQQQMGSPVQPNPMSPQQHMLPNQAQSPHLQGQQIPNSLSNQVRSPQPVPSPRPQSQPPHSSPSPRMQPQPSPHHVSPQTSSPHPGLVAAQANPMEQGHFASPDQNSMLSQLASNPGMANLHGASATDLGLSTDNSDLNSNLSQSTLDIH

Tests used:
Flag-NRF2 [1] = biological target: T1, Flag-NRF2 (UniProt Q16236); test: co-IP; HEK293T cells transfected with NRF2 and GAS41 (wild type, fragments or point mutants) plasmids; lysis in BC150 buffer (150 mM NaCl, 0.4% NP-40), Flag M2, HA or streptavidin agarose overnight at 4 °C, washes with BC200 and BC150; western blot
T1 sequence: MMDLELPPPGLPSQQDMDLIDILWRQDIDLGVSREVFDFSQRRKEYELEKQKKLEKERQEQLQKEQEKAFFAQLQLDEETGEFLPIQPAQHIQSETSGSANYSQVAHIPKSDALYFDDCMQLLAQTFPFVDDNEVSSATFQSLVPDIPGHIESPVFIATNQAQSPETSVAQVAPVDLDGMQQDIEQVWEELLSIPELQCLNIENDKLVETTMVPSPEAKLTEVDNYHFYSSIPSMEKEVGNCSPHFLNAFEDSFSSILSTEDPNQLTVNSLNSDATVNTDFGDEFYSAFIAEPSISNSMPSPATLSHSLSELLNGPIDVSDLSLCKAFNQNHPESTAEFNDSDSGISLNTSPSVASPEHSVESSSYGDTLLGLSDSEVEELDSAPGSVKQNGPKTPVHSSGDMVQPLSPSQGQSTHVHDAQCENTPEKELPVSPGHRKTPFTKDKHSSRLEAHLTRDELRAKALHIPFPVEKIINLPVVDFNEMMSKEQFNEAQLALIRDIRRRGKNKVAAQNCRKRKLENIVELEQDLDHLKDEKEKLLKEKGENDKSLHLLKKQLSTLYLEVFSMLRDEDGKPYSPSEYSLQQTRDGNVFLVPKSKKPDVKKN

[2] = biological target: GAS41-amino acids 1-160 (YEATS domain and A box) (human) (UniProt O95619); test: co-IP; Supplementary Fig. 6a, b: GAS41 regions with TRRAP or TIP60; legend and cells not shown
[3] = biological target: T2, NRF2, endogenous in A549 (human (endogenous in A549)) (UniProt Q16236); test: co-IP; endogenous proteins of A549 cells; GAS41 antibody, NRF2 antibody or control IgG, protein A/G agarose; western blot
T2 sequence: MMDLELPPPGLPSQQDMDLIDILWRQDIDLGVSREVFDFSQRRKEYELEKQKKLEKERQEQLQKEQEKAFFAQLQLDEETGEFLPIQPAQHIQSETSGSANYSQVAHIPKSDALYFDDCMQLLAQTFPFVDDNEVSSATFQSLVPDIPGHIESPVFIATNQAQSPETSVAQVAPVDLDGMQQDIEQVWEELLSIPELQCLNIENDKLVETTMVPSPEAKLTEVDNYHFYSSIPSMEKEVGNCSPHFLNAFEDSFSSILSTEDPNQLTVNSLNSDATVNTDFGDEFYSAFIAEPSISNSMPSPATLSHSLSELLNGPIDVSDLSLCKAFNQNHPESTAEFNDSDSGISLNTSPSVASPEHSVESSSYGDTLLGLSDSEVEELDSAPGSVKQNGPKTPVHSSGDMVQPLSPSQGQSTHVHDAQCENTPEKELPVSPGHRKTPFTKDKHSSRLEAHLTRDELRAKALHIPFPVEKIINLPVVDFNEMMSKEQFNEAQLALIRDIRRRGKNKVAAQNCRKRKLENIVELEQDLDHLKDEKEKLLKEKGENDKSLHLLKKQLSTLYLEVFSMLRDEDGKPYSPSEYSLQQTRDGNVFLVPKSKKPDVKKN

Flag-NRF2 [4] = biological target: T1, Flag-NRF2; test: co-IP; Supplementary Fig. 6c, d: NRF2 with CBP or p300, without or in the presence of GAS41; legend and cells not shown
[5] = biological target: GAS41 W93A mutant (human) (UniProt O95619); test: co-IP; HEK293T cells transfected with NRF2 and GAS41 (wild type, fragments or point mutants) plasmids; lysis in BC150 buffer (150 mM NaCl, 0.4% NP-40), Flag M2, HA or streptavidin agarose overnight at 4 °C, washes with BC200 and BC150; western blot
[6] = biological target: GAS41-amino acids 1-160 (YEATS domain and A box) (human) (UniProt O95619); test: as above
[7] = biological target: GAS41-amino acids 1-183 (YEATS domain and A box) (human) (UniProt O95619); test: as above
[8] = biological target: GAS41-amino acids 1-206 (YEATS domain, A box and partial coiled-coil motif) (human) (UniProt O95619); test: as above
[9] = biological target: GAS41-amino acids 161-227 (complete coiled-coil motif) (human) (UniProt O95619); test: as above
HA-GAS41 (human) = HA-GAS41 (human) (UniProt O95619); test: as above
[10] = biological target: SFB (S protein tag, Flag tag, and Streptavidin binding peptide)-GAS41 (human) (UniProt O95619); test: co-IP; SFB-GAS41 stable HEK293T cell line; two-step affinity purification (first streptavidin agarose beads, then S-protein agarose beads); western blot
[11] = biological target: GAS41, endogenous in A549 (human (endogenous in A549)) (UniProt O95619); test: co-IP; endogenous proteins of A549 cells; GAS41 antibody, NRF2 antibody or control IgG, protein A/G agarose; western blot

Molecule: TRRAP (from UniProt Q9Y4A5 1-3859)
binding [2]: binds

Molecule: GAS41, endogenous in A549 (from UniProt O95619 1-227)
binding [3]: binds

Molecule: CBP (CREB binding protein) (from UniProt Q92793 1-2442)
binding (Flag-NRF2 [4]): binds

B2: NRF2 in the SFB-GAS41 stable HEK293T cell line (protein, UniProt Q16236 1-605)
chain: MMDLELPPPGLPSQQDMDLIDILWRQDIDLGVSREVFDFSQRRKEYELEKQKKLEKERQEQLQKEQEKAFFAQLQLDEETGEFLPIQPAQHIQSETSGSANYSQVAHIPKSDALYFDDCMQLLAQTFPFVDDNEVSSATFQSLVPDIPGHIESPVFIATNQAQSPETSVAQVAPVDLDGMQQDIEQVWEELLSIPELQCLNIENDKLVETTMVPSPEAKLTEVDNYHFYSSIPSMEKEVGNCSPHFLNAFEDSFSSILSTEDPNQLTVNSLNSDATVNTDFGDEFYSAFIAEPSISNSMPSPATLSHSLSELLNGPIDVSDLSLCKAFNQNHPESTAEFNDSDSGISLNTSPSVASPEHSVESSSYGDTLLGLSDSEVEELDSAPGSVKQNGPKTPVHSSGDMVQPLSPSQGQSTHVHDAQCENTPEKELPVSPGHRKTPFTKDKHSSRLEAHLTRDELRAKALHIPFPVEKIINLPVVDFNEMMSKEQFNEAQLALIRDIRRRGKNKVAAQNCRKRKLENIVELEQDLDHLKDEKEKLLKEKGENDKSLHLLKKQLSTLYLEVFSMLRDEDGKPYSPSEYSLQQTRDGNVFLVPKSKKPDVKKN
binding [10]: binds

B3: NRF2, endogenous in A549 (protein, UniProt Q16236 1-605)
chain: MMDLELPPPGLPSQQDMDLIDILWRQDIDLGVSREVFDFSQRRKEYELEKQKKLEKERQEQLQKEQEKAFFAQLQLDEETGEFLPIQPAQHIQSETSGSANYSQVAHIPKSDALYFDDCMQLLAQTFPFVDDNEVSSATFQSLVPDIPGHIESPVFIATNQAQSPETSVAQVAPVDLDGMQQDIEQVWEELLSIPELQCLNIENDKLVETTMVPSPEAKLTEVDNYHFYSSIPSMEKEVGNCSPHFLNAFEDSFSSILSTEDPNQLTVNSLNSDATVNTDFGDEFYSAFIAEPSISNSMPSPATLSHSLSELLNGPIDVSDLSLCKAFNQNHPESTAEFNDSDSGISLNTSPSVASPEHSVESSSYGDTLLGLSDSEVEELDSAPGSVKQNGPKTPVHSSGDMVQPLSPSQGQSTHVHDAQCENTPEKELPVSPGHRKTPFTKDKHSSRLEAHLTRDELRAKALHIPFPVEKIINLPVVDFNEMMSKEQFNEAQLALIRDIRRRGKNKVAAQNCRKRKLENIVELEQDLDHLKDEKEKLLKEKGENDKSLHLLKKQLSTLYLEVFSMLRDEDGKPYSPSEYSLQQTRDGNVFLVPKSKKPDVKKN
binding [11]: binds

Further lines, results first:

binding (Flag-NRF2 [1]): binds
Molecule: HA-GAS41 (from UniProt O95619 1-227)

binding [2]: binds
Molecule: TIP60 (from UniProt Q92993 1-513)

binding (Flag-NRF2 [4]): binds
Molecule: p300 (from UniProt Q09472 1-2414)

binding [5]: binds
binding [6]: no binding
binding [7]: no binding
binding [8]: no binding
binding [9]: binds
binding (HA-GAS41 (human)): binds
B1: Flag-NRF2 (protein, UniProt Q16236 1-605)
chain: MMDLELPPPGLPSQQDMDLIDILWRQDIDLGVSREVFDFSQRRKEYELEKQKKLEKERQEQLQKEQEKAFFAQLQLDEETGEFLPIQPAQHIQSETSGSANYSQVAHIPKSDALYFDDCMQLLAQTFPFVDDNEVSSATFQSLVPDIPGHIESPVFIATNQAQSPETSVAQVAPVDLDGMQQDIEQVWEELLSIPELQCLNIENDKLVETTMVPSPEAKLTEVDNYHFYSSIPSMEKEVGNCSPHFLNAFEDSFSSILSTEDPNQLTVNSLNSDATVNTDFGDEFYSAFIAEPSISNSMPSPATLSHSLSELLNGPIDVSDLSLCKAFNQNHPESTAEFNDSDSGISLNTSPSVASPEHSVESSSYGDTLLGLSDSEVEELDSAPGSVKQNGPKTPVHSSGDMVQPLSPSQGQSTHVHDAQCENTPEKELPVSPGHRKTPFTKDKHSSRLEAHLTRDELRAKALHIPFPVEKIINLPVVDFNEMMSKEQFNEAQLALIRDIRRRGKNKVAAQNCRKRKLENIVELEQDLDHLKDEKEKLLKEKGENDKSLHLLKKQLSTLYLEVFSMLRDEDGKPYSPSEYSLQQTRDGNVFLVPKSKKPDVKKN
